From PMC12136788
The other results are listed elsewhere or left out.

T1: UNK ZnF1-3 (human, UniProt Q9C0B0 31-174)
T1 sequence: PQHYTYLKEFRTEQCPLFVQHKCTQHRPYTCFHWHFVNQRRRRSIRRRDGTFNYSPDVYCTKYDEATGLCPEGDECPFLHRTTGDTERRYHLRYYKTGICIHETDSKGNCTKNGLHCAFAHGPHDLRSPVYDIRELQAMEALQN

B1: chr17:56552419:56552420:-_ENSMUSG00000013236_ENSMUST00000086828|mus_mus|mus_mus_mus_hu_False|1_8 (ssRNA)
RNA: GGGAGUUCUACAGUCCGACGAUCAAAAAAUACACUAUUUAAAAAAAAUGAAAUGUCACGGGAUACAGUUACACUGAGAGUUUUAAAAGAAAGCUGGAUUCUGGUCCCAGCCCAGUGUCCCCAGGCUGAGUGCGGAAGCAGAGGCAACAGAGGAUUGAGCAUCA
B2: chr7:7679991:7679992:-_ENSG00000106399_ENST00000396682|hu_hu|hu_hu_hu_mus_False|38_68 (ssRNA)
RNA: GGGAGUUCUACAGUCCGACGAUCUGGGAUGAAUCUUUUCCAGCUUCCCCACGAAGCACACGGGCCGGUCGAUGAAUUGUGGUAACAUGCUGGCGUUGAUGCGCGACUUGGGGAGCUGCAUUAUGUCCUCCAUGAUUCUGCCGCCAACAGAGGAUUGAGCAUCA
B3: chr12:493273:493274:-_ENSG00000073614_ENST00000399788|hu_mus|hu_hu_hu_mus_False|28_38 (ssRNA)
RNA: GGGAGUUCUACAGUCCGACGAUCUUUUCUCUCCACCACAGGGAUCUUCAAUGUAGAUCCUUGAAGUUCCCAAAAUUUUGCCAGUUGAUCCAAGAAGUCCAAUCUCACUCUGGUCAUUGCCUCAAGUUCAUUCAGGCGCUGGACCAACAGAGGAUUGAGCAUCA
B4: 57237035_57239225_1364_3pUTR_ENSMUSG00000019877_ENSMUST00000020027|mouse|control|control (ssRNA)
RNA: GGGAGUUCUACAGUCCGACGAUCCUGGAAGAGAUUUUCACCCAGACUGCUGUCCACUGACUUUUCAUCUCACGAGAAGGCUCAUACCUGUACCAAUUGGUGAGGGUCAUCAUGAUGUAAAGUGAAGCCAAGAAGAGCAUGAAGCAACAGAGGAUUGAGCAUCA
B5: chr8:117878989:117878990:-_ENSG00000164754_ENST00000297338|hu_hu|hu_hu_hu_mus_True|1_58 (ssRNA)
RNA: GGGAGUUCUACAGUCCGACGAUCCCAGAGGCCCUCGUUUACUGAGGACAAAAUGUGCGUAGAACAUUUUUCUUAUUGGCUAUGAAAUAAGAAGAAACCUGGAUCUCGGCGGGGAGCCGGGAGGGGUGGGUGGCCCGGGGGAGGCAACAGAGGAUUGAGCAUCA
B6: chr6:53156713:53156714:-_ENSG00000012660_ENST00000304434|hu_hu|FALSE|FALSE (ssRNA)
RNA: GGGAGUUCUACAGUCCGACGAUCGACAGAGCAGAUAAAUGUGGGUAUAUAAUUGUCCAGAAGAAACCAUCCUUUUACUCUAGUAUCUCGAGGGCCUAGCAAUGCCUUGAAAUAGGUACUAAGUGAUGCAUCAAAAUGUUCCAUCAACAGAGGAUUGAGCAUCA
B7: chr1:46159212:46159213:+_ENSG00000159596_ENST00000372025|hu_mus|hu_hu_hu_mus_True|48_68 (ssRNA)
RNA: GGGAGUUCUACAGUCCGACGAUCUCUGAUCCCUCCCAAGAAAGCUAGGAAACCGGCUCCAUAAGCCAUCUGAGUAAAAGCUAGGACGGGAAUAUAAGACUUUGUUAUUACCAUGAGAAGUGGGGGAGCAGUAAAGGGGAUUAACAACAGAGGAUUGAGCAUCA
B8: chr18:35833404:35833405:-_ENSMUSG00000024350_ENSMUST00000025208|mus_hu|FALSE|FALSE (ssRNA)
RNA: GGGAGUUCUACAGUCCGACGAUCACUACAAGACCUGGGUCAUCCUCUCUGGGCCAAUGUUCUCAUUCAUAGAACCAGGGAUAAUACAUCUACUUCAGAGUUGUGAGGAGGUUUAAGUAAGAAAAUAUGUGUGAGAGCCCCUGCCAACAGAGGAUUGAGCAUCA
B9: 138110163_138113869_380_3pUTR_ENSMUSG00000028138_ENSMUST00000005964|mouse|control|control (ssRNA)
RNA: GGGAGUUCUACAGUCCGACGAUCAGUGACCCUUAUUUUCUGGCAAAGGUUUGUUUUAGGAUUCAGACAAAACUUGCAUUCUCCACACUGUGGGAUGUAGAGUGGGAUGACAGUGUCACCUGCCUUCAGCUUCGUGACCCCUUCCAACAGAGGAUUGAGCAUCA
B10: chr4:148551591:148551592:-_ENSMUSG00000063077_ENSMUST00000060537|mus_hu|mus_mus_mus_hu_False|58_58 (ssRNA)
RNA: GGGAGUUCUACAGUCCGACGAUCACCUGACAAAAUUAAAUAUCCCUGUAAAUUAGACAAUAAGCAGCAGGCAACAAAGUCUAUGCUUUGGAAUAUGUGCCAGGAAAAGUCAUCUUGUUUUUAGAUCUCAAGAGACAGUUCACACAACAGAGGAUUGAGCAUCA
B11: chr8:79514634:79514635:+_ENSG00000171033_ENST00000352966|hu_mus|FALSE|FALSE (ssRNA)
RNA: GGGAGUUCUACAGUCCGACGAUCGUUGUGUUUUACAAAAGAAGGUUCUGCCCUGUUCACGCCACAACACUAUGGGAAAUUAAAAAGGCAGCCCUUUAAAAAAUGAGCGGUAUAAAAAUUCACAGUCAUGUACAUCAUUUUGUUCAACAGAGGAUUGAGCAUCA
B12: chr16:94690093:94690094:+_ENSMUSG00000040785_ENSMUST00000117648|mus_hu|mus_mus_mus_hu_True|8_58 (ssRNA)
RNA: GGGAGUUCUACAGUCCGACGAUCGGGCUGGGAUGACGGACACACAGCCUCGAUUCCAGGGGGAAAAAGUCUUAGUCAAUACUAAUUAAAAAGUGUUAAUGAUUUUUGAAAAUCAGAUUACAUCUAUUUGAAUCAUAAAGCAAACAACAGAGGAUUGAGCAUCA
B13: chr1:93819538:93819539:+_ENSG00000117505_ENST00000370267|hu_mus|FALSE|FALSE (ssRNA)
RNA: GGGAGUUCUACAGUCCGACGAUCCUCUUCAGGAAUGCCGAGGUUUUCCAAACGAGAACUGGCCUUUCUUCUUUUUAAUGCUACUGUCUUGCAUUCUUGUAAGACUUCUUUUACUUCACUGAUGUAAGAGCCAAAGCCCAAACUCAACAGAGGAUUGAGCAUCA
B14: 216272015_216273021_2753_CDS_ENSG00000115414_ENST00000323926|human|control|control (ssRNA)
RNA: GGGAGUUCUACAGUCCGACGAUCUACUGAUGGCGAAUAGACUAUUCUGUACCCUGUGAUGGGAGCCUGGGGUCUGCUCCAGCGAACAACAAUUGAGGUGUCAUCAACUUGGUCCACAGUCGUGUCAGGAGGGGCAUCAGGCGCCAACAGAGGAUUGAGCAUCA

Each binder was assayed against T1, UNK ZnF1-3 (assay: nsRBNS (natural sequence RNA bind-n-seq); RBNS binding buffer (assumed for nsRBNS): 25 mM Tris pH 7.5, 150 mM KCl, 3 mM MgCl2, 0.01% Triton X-100, 500 ug/ml BSA, 20 U/ml SUPERase-In, 4 C; UNK is unkempt and MSI1 is Musashi-1; names of the RNAs are library labels; protein concentration not given here; high values mean tight binding).
B1 was tested, and the binding signal was 1.71 enrichment R.
Work on B2 yielded a binding signal of 0.522 enrichment R.
With B3 the binding signal was 1.13 enrichment R.
B4 showed a binding signal of 1.42 enrichment R.
Binder B5 has a binding signal of 1.58 enrichment R.
For B6, the binding signal was 1.32 enrichment R.
Work on B7 yielded a binding signal of 1.53 enrichment R.
For B8, the binding signal was 1.42 enrichment R.
B9 gave a binding signal of 0.768 enrichment R.
B10 gave a binding signal of 1.22 enrichment R.
B11 was tested, and the binding signal was 0.706 enrichment R.
Work on B12 yielded a binding signal of 0.555 enrichment R.
In the case of B13, the binding signal is reported as 0.507 enrichment R.
In the case of B14, the binding signal is reported as 1.62 enrichment R.
